Among all 410,000 compounds or so, about 5,000 (1.2%) were called active. The shares of active, inactive and inconclusive entries below differ from those in the screen. Calls come from the whole dose curve; as a rule, active = well fitted inhibition curve with a large enough effect; inconclusive = small, poorly fitted or top-dose-only effect; inactive = no such curve, though single readings can be large or run the other way. Potencies of inconclusive entries are doubtful fits and often do not repeat.
test: qHTS for Inhibitors of TGF-b; details: HepG2 CAGA-GFP TGF-b/SMAD3 reporter, GFP fluorescence, 18 h, TGF-beta stimulated, 500 pg/mL final; series mostly up to 46.1 µM; activity, negative = inhibition: at the top concentration; note: nearly all actives have a fitted effect of over 65% in size
Method in brief: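 Smad-responsive CAGA-GFP expression was quantified in HEPG2 cells exposed to compounds and 500 pg/mL final TGF-beta for 18 h at 37 degrees C; unstimulated wells defined full inhibition.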
% is set by controls: 0 for no effect and ±100 for the full control effect; potency is the fitted concentration of half-maximal effect; tags give direction and shape of the fitted curve.

Row | Compound | activity, negative = inhibition | Potency
1 | CCC(C)NC(=O)C1CCN(S(=O)(=O)N2CCC3(CC2)OCCO3)CC1 (stereo not given) | inactive: 8% | –
2 | COc1ccc(-n2nc3ccc(NS(C)(=O)=O)cc3n2)cc1Cl | – | inconclusive: 10 µM [inhibitor, partial curve, poor fit]
3 | CC(C)(C)C1CCc2c(C(=O)NNC(=O)/C=C/C(=O)O)csc2C1 (stereo not given) | inactive: 2.29% | –
4 | O=Cc1cn(CCOc2ccccc2)c2ccccc12 | – | inconclusive: 3.98 µM [inhibitor, partial curve, poor fit]
5 | CC(C)C1Cc2c(sc3ncnc(NN)c23)CO1 (stereo not given) | – | inconclusive: 12.6 µM [inhibitor, single point]
6 | CCOC(=O)c1cc(C)n(CC2CCC(C(=O)Nc3ccc(C(=O)OC)cc3)CC2)c1C (stereo not given) | – | inconclusive: 12.6 µM [inhibitor, partial curve]
7 | CC1CC(C)CN(CCCNC(=O)c2cc3c(s2)-c2ccccc2OC3)C1 (stereo not given) | – | inconclusive: 22.4 µM [inhibitor, single point]
8 | COc1ccccc1CNC(=O)C(=O)NCC1OCCN1S(=O)(=O)c1cccs1 (stereo not given) | – | inconclusive: 35.5 µM [inhibitor, single point]
9 | CCOC(=O)C1CCN(C(=O)COC(=O)CNS(=O)(=O)c2ccc(SC)c([N+](=O)[O-])c2)CC1 | – | inconclusive: 15.8 µM [inhibitor, partial curve, poor fit]
10 | O=C(CCOc1ccccc1)N(Cc1cccnc1)c1nc2ccc(F)cc2s1 | – | inconclusive: 7.94 µM [inhibitor, partial curve, poor fit]
11 | Nc1cccc2[nH]cnc12 | inactive: -17.8% | –
12 | O=C(Nc1ccc2oc(-c3ccc(Cl)cc3)nc2c1)c1ccc2ccccc2c1 | – | inconclusive: 35.5 µM [inhibitor, single point]
13 | CCOc1ccccc1C(=O)N1c2ccccc2Sc2ccccc21 | – | inconclusive: 25.1 µM [inhibitor, single point]
14 | COc1ccc(O)c(C(=O)c2cnn(C(=O)c3cccc(S(=O)(=O)N4CCOCC4)c3)c2)c1 | – | inconclusive: 22.4 µM [inhibitor, single point]
15 | COc1ccc(-c2n[nH]c(C)c2-c2ccc(Cl)cc2)c(O)c1 | – | inconclusive: 20 µM [inhibitor, single point]
16 | COC(=O)COc1cccc(NC(=O)c2cc(OC)cc(OC)c2)c1 | inactive: -12.7% | –
17 | CC(=O)Nc1cccc(NC(=O)c2ccccc2OCc2c(C)noc2C)c1 | inactive: -19.4% | –
18 | COc1ccc(C)cc1NC(=O)CO/N=C(\N)CC(=O)NC1CCCCC1 | inactive: -21% | –
19 | Cn1c(=O)c(=O)n(C)c2cc([N+](=O)[O-])c([N+](=O)[O-])cc21 | inactive: -2.03% | –
20 | COc1cc(CC(=O)OCC(=O)Nc2cc([N+](=O)[O-])ccc2Cl)cc(OC)c1OC | – | inconclusive: 6.31 µM [inhibitor, single point]
21 | COc1cc(/C=N/NC(=S)NC2CC3CCC2C3)ccc1O (stereo not given) | – | inconclusive: 35.5 µM [inhibitor, single point]
22 | O=C(COC(=O)C1(c2ccccc2F)CCCC1)N1CCNC1=O | inactive: -1.15% | –
23 | COc1ccc(OC)c(Nc2nc(NCCCN(C)C)nc(N)c2[N+](=O)[O-])c1 | – | inconclusive: 17.8 µM [inhibitor, single point]
24 | CCn1cc(S(=O)(=O)c2cccc(C)c2)c(=O)c2cc(F)c(N3CCN(c4ccccc4)CC3)cc21 | inactive: 0.754% | –

Row | Compound | activity, negative = inhibition | Potency
25 | O[C@@H]1CN(Cc2ccc(-n3cccn3)cc2)CC[C@H]1N1CCN(c2ccccc2F)CC1 | – | inconclusive: 17.8 µM [inhibitor, single point]
26 | CCN(C(=O)CSc1nc2n[nH]c(C)c2c(=N)n1-c1cccc(OC)c1)c1cccc(C)c1 | – | inconclusive: 14.1 µM [inhibitor, single point]
27 | NC(=S)N/N=C/c1ccccc1OC(=O)/C=C/c1ccccc1 | – | active: 7.08 µM
28 | CCOC(=O)c1cccc(NC(=O)CCc2c(C)nn(-c3ccc(N4CCOCC4)nn3)c2C)c1 | – | inconclusive: 7.08 µM [inhibitor, full curve, poor fit]
29 | Cc1cc(/C=N/n2cnnc2)c(C)n1-c1cc(Cl)ccc1Cl | – | inconclusive: 35.5 µM [inhibitor, single point]
30 | O=C(C1CCC(CNS(=O)(=O)c2cccc3nsnc23)CC1)N1CC=C(c2ccccc2)CC1 (stereo not given) | – | active: 8.91 µM
31 | O=C(O)/C=C\C(=O)Nc1ccc(N2CCN(c3ccc(Cl)c(Cl)c3)CC2)cc1 | inactive: -11.7% | –
32 | c1ccc2c(c1)Nc1ccncc1S2 | – | inconclusive: 22.4 µM [inhibitor, single point]
33 | O=C(/C=C/c1cccc([N+](=O)[O-])c1)c1cccs1 | – | active: 8.91 µM
34 | CCCCCCNc1nc(-c2ccc(OC)cc2)c(CCC(=O)O)s1 | inactive: 0.554% | –
35 | Nc1ccccc1C#Cc1ccc2[nH]ccc2c1 | – | inconclusive: 12.6 µM [inhibitor, single point]
36 | O=C1c2ccccc2C2=Nc3ccccc3SC(c3ccccc3F)C12 (stereo not given) | – | inconclusive: 5.62 µM [inhibitor, single point]
37 | Cc1ccc(CNc2cc(C)nc3nc(-c4cccc(C)c4)nn23)cc1 | – | inconclusive: 22.4 µM [inhibitor, single point]
38 | CC(=O)N[C@@H](C)c1nc2ccccc2n1CCCN1CCN(c2nc(-c3ccc(C)cc3)cs2)CC1 | – | active: 8.91 µM
39 | Cc1ccc(C(=O)N2CCCC(N3CCN(c4cccc(C(F)(F)F)c4)CC3)C2)s1 (stereo not given) | – | active: 11.2 µM
40 | Cc1cccc2nc(CSc3nc4[nH]ncc4c(=O)n3-c3cccc(Cl)c3)cc(=O)n12 | – | inconclusive: 6.31 µM [inhibitor, single point]
41 | Cn1c(NCc2c[nH]c3ccccc23)nc2ccccc21 | – | inconclusive: 35.5 µM [inhibitor, single point]
42 | COc1ccc(Cl)cc1NC(=O)C(C)N1CCN(C/C=C/c2ccccc2)CC1 (stereo not given) | – | inconclusive: 15.8 µM [inhibitor, single point]
43 | CC(=NCc1ccco1)c1c(C)[nH]n(-c2nc3ccccc3s2)c1=O | inactive: -3.88% | –
44 | CCC(C)NC(=O)c1sc2ncccc2c1-n1c(C)ccc1C (stereo not given) | inactive: -20.7% | –
45 | O=C(/C=C/c1ccc([N+](=O)[O-])cc1)c1cccnc1 | – | inconclusive: 20 µM [inhibitor, single point]
46 | COc1ccc(COC(=O)c2c(C)nn(-c3ccccc3)c2Cl)cc1 | inactive: -2.11% | –
47 | COc1ccc(-c2cc(-c3ccccc3)c(C#N)c(SCC(=O)Nc3ncc(C)s3)n2)cc1 | – | inconclusive: 0.562 µM [inhibitor, full curve, poor fit]
48 | Fc1ccc(-[n+]2nc(Nc3ccccc3)sc2-c2c3ccccc3cc3ccccc23)cc1 | – | active: 11.2 µM

Row | Compound | activity, negative = inhibition | Potency
49 | O=C(Cc1ccc(Br)cc1)Nc1ccc2[nH]ncc2c1 | inactive: -9.95% | –
50 | Cc1cccc(CNC(=O)c2ccc(NC(=O)N3CCSc4ccccc43)cc2)c1 | inactive: -12.7% | –
51 | C[C@@H]1CN([C@@H](C)CO)S(=O)(=O)c2ccc(Br)cc2O[C@H]1CN(C)C(=O)Cc1cccnc1 | inactive: -1.98% | –
52 | Cc1ccccc1NC(=O)N1CCNC(=O)C1CC(=O)Nc1cc(Cl)ccc1Cl (stereo not given) | inactive: 5.17% | –
53 | NC(=O)CC(NC(=O)c1ccc(Br)cc1)c1ccc(N2CCC(Br)CC2)c([N+](=O)[O-])c1 (stereo not given) | – | inconclusive: 10 µM [inhibitor, partial curve]
54 | Cc1cccc2nc(-c3cccnc3)c(Nc3ccccc3)n12 | – | inconclusive: 35.5 µM [inhibitor, partial curve, poor fit]
55 | Cc1nnc(N2CCOCC2)c2nn(-c3cccc(Cl)c3)c(C)c12 | inactive: -3.96% | –
56 | CCC1CCCCN1S(=O)(=O)c1ccc(C(=O)Nc2nnc(C3CC3)o2)cc1 (stereo not given) | inactive: -15.8% | –
57 | Cc1ccc(NS(=O)(=O)c2cc(C(=O)NCCCN(C)C)ccc2Cl)cc1Cl | – | inconclusive: 12.6 µM [inhibitor, single point]
58 | CCOc1ccc(CN(C)C(=O)CCc2ccc(S(=O)(=O)N3CCCCCC3)cc2)cc1 | – | inconclusive: 10 µM [inhibitor, partial curve]
59 | CC(C)C1C(=O)NC(=S)N1S(=O)(=O)c1ccc(C(C)(C)C)cc1 (stereo not given) | – | inconclusive: 35.5 µM [inhibitor, partial curve, poor fit]
60 | Cc1[nH]c(=S)[nH]c(=O)c1CCOc1ccccc1 | inactive: -5.99% | –
61 | O=C(c1cccnc1)N1N=C(c2cccs2)CC1c1ccc(F)cc1 (stereo not given) | – | inconclusive: 3.16 µM [inhibitor, single point]
62 | Cc1c(C(=O)O)sc2nc(SCC(=O)Nc3ccc(S(=O)(=O)NC(C)(C)C)cc3)[nH]c(=O)c12 | inactive: 19.5% | –
63 | CC(OC(=O)c1ccc(Cl)cc1)C(=O)NCC1CCCCC1 (stereo not given) | inactive: 2.25% | –
64 | O=Cc1cccn1-c1sc2c(c1C(=O)O)CCCC2 | – | inconclusive: 3.16 µM [inhibitor, single point]
65 | Nc1nonc1-n1nnc(C(=O)N/N=C/c2ccccc2F)c1CN1CCc2ccccc21 | – | inconclusive: 17.8 µM [inhibitor, single point]
66 | O=S(=O)(NCCO)c1ccc2c(c1)Cc1cc(S(=O)(=O)NCCO)ccc1-2 | – | inconclusive: 35.5 µM [inhibitor, single point]
67 | CCc1cc2cc(C)cc(C)c2nc1SCC(=O)N1CCN(C(=O)c2ccco2)CC1 | – | inconclusive: 4.47 µM [inhibitor, full curve, poor fit]
68 | O=C(NNC(=O)C12CC3CC(CC(C3)C1)C2)c1ccccc1[N+](=O)[O-] | inactive: 13.8% | –
69 | CN(C)CC/C=C1/c2ccc(F)cc2Sc2ccc(Cl)cc21 | – | inconclusive: 22.4 µM [inhibitor, partial curve, poor fit]
70 | CS(=O)(=O)Nc1ccc(C2=NN(S(=O)(=O)c3ccccc3)C(c3cccs3)C2)cc1 (stereo not given) | – | inconclusive: 15.8 µM [inhibitor, single point]

Source: PubChem BioAssay AID588855 (National Center for Advancing Translational Sciences (NCATS), 2011)
